Measured values: PubChem BioAssay AID1768 (National Center for Advancing Translational Sciences (NCATS), 2009)
The whole screen tested about 270,000 compounds, of which about 620 (0.23%) were called active. The shares of active, inactive and inconclusive entries below differ from those in the screen. Calls come from the whole dose curve; as a rule, active = well fitted inhibition curve with a large enough effect in the polarisation, with a control signal flat (not every such curve was filed as active); inconclusive = small, poorly fitted or top-dose-only effect, or effect the other way, or a change in a side signal; inactive = no such curve, though single readings can be large or run the other way; the % refers to the polarisation. Potencies beside an inconclusive call are fits to weak or partial responses and may not hold up. “Side channel” marks fits to a control or component signal instead of the main read-out.

What follows are compounds tested against Menin (Homo sapiens) (UniProt O00255) (assay: qHTS Assay for Inhibitors Targeting the Menin-MLL Interaction in MLL Related Leukemias: Competition With Texas Red Labeled MLL-derived Mutant Peptide). Settings: fluorescence polarization; FP activity change, negative = inhibition: at 61.6 µM (top of the series).
Potency is the fitted concentration of half-maximal effect; tags give direction and shape of the fitted curve or compound fluorescence and quenching.
Throughout, for FP activity change, negative = inhibition: % of control where 0% means no effect.

Sequence of UniProt O00255 (O00255 whole entry, looked up): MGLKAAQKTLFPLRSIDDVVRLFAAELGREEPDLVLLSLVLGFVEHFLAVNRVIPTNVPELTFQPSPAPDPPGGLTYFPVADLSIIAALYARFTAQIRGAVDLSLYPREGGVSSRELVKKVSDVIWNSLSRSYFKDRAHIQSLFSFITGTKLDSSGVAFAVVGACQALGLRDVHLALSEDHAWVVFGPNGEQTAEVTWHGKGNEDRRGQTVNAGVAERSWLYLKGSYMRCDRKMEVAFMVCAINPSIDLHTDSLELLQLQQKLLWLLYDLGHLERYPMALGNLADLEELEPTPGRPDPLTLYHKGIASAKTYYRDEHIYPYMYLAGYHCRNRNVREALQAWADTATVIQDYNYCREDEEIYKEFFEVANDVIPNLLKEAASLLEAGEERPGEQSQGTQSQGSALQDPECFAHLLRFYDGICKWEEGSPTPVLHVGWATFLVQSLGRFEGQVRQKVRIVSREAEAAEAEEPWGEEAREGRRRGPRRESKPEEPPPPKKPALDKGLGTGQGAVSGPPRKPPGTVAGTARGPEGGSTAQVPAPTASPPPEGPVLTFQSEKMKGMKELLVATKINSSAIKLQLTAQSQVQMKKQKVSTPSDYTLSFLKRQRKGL

FP activity change, negative = inhibition, inactive:
CCc1cccc(NC(=O)Cn2c3[n+](c4ccc(C(F)(F)F)cc42)CCCCC3)c1 -6.17%
CN1C(=S)SC(N(O)C(=O)Nc2ccccc2)C1(C)C (stereo unspecified) 0.748%
CCOC(=O)N1CCN(C(=O)CN(Cc2ccccc2)S(C)(=O)=O)CC1 4.2%
CC1OC23CCCCC2C(C#N)(C(=N)O3)C1(C#N)C#N (stereo unspecified) 3.01%
CCOCCCNC(=S)NCCCNc1nc2cc3c(cc2cc1C#N)OCO3 2.06%

Potency, inconclusive:
CCCn1c(CCC(=O)O)ccc1-c1cccs1 35.5 µM [quencher, side channel, single point]
Cc1cccc(N2C(=O)Cc3ccccc3C2=O)c1 39.8 µM [inhibitor, single point]
CC(=O)NC(c1cccs1)c1cc([N+](=O)[O-])c2cccnc2c1O (stereo unspecified) 10 µM [quencher, side channel, partial curve]
Cc1ccc(NS(=O)(=O)c2ccc(NC(=O)CN(c3cc([N+](=O)[O-])ccc3C)S(C)(=O)=O)cc2)c(C)c1 3.16 µM [quencher, side channel, full curve]
Cc1cc(C)c2nc(N3C(=O)C(O)=C(C(=O)c4ccco4)C3c3ccco3)sc2c1 (stereo unspecified) 12.6 µM [quencher, side channel, partial curve]
C/C(=N\N=c1/scc(C)n1Cc1ccco1)c1cccc([N+](=O)[O-])c1 10 µM [quencher, side channel, partial curve]
Nc1c(/C=C2/C=CC(=O)C(O)=C2)c(=O)nc2sc(CC(=O)N3CCCCC3)nn12 10 µM [quencher, side channel, single point]
CC(C)CNC(=O)CC(=O)N/N=C/c1ccc(Br)cc1 1.58 µM [inhibitor, full curve, poor fit]
O=C(c1cc(-c2ccc(Cl)cc2Cl)on1)N1CCCC1 20 µM [fluorescent, side channel, partial curve]
O=C(CNC(=O)c1ccco1)NCC(=O)OCc1ccc(C(=O)Oc2ccc(Cl)cc2)cc1 17.8 µM [fluorescent, side channel, single point]
COc1ccc(C(C(=O)NC2CCCC2)N(C(=O)c2ccoc2C)c2ccc(C)cc2)cc1 (stereo unspecified) 1.78 µM [fluorescent, side channel, full curve, poor fit]
NCCc1c(-c2ccccc2)n(-c2ccccc2)c2ccccc12 6.31 µM [fluorescent, side channel, partial curve]
CCOc1ccc(-c2[nH]ncc2-c2ccc(Cl)cc2)c(O)c1 12.6 µM [quencher, side channel, partial curve]
CC(C)(C)N(Cc1ccccc1)C(=O)c1ccc(Br)o1 31.6 µM [fluorescent, side channel, partial curve]
O=C(NNC(=S)NC(=O)c1ccccc1)c1ccc([N+](=O)[O-])cc1 20 µM [quencher, side channel, partial curve]
Cc1cc(NC(=O)c2cc(-c3ccc(C)s3)nc3ccccc23)no1 39.8 µM [quencher, side channel, partial curve]
Cc1nc(N)sc1-c1csc(NCc2ccccc2)n1 28.2 µM [quencher, side channel, single point]
O=C(Cn1cnc2ccccc2c1=O)Nc1nc2ccccc2s1 39.8 µM [inhibitor, single point]
CCOc1ccc(CC(=NCCc2ccccc2)C2=C(O)CC(C)(C)CC2=O)cc1OCC 35.5 µM [fluorescent, side channel, partial curve]
CCCCN(CCCC)C1=Nc2ccccc2N/C1=C(/C#N)C(=O)OCC 8.91 µM [fluorescent, side channel, full curve]
CC[n+]1c(/C=C2\Sc3ccccc3N2C)ccc2cccc(C)c21 1.78 µM [fluorescent, side channel, partial curve]
COc1cccc(NC(=O)c2cc(S(=O)(=O)N3CCc4ccccc43)cn2C)c1 39.8 µM [inhibitor, single point]
CC(C)CC(O)(c1ccccc1)C(CN1CCOCC1)c1ccccc1 (stereo unspecified) 17.8 µM [fluorescent, side channel, partial curve]
COC(=O)[C@]1(C)CCC[C@@]2(C)C3CC[C@@]4(C)C[C@]3(CC[C@H]12)C[C@H]4O (stereo partly specified) 11.2 µM [fluorescent, side channel, partial curve]
NC(=O)c1sc(=S)n2c1[nH]c(=O)c1sccc12 39.8 µM [quencher, side channel, single point]
S=c1[nH]nc(COc2ccc3ccccc3c2)o1 25.1 µM [quencher, side channel, single point]
COc1cc(NC(=O)c2ccco2)c(OC)cc1NC(=O)Nc1ccccc1Cl 7.08 µM [quencher, side channel, partial curve]
COc1cccc2cc(-c3nnc(-c4ccccc4)o3)c(=O)oc12 39.8 µM [fluorescent, side channel, single point]
Cc1ccc(-n2cccc2/C=C2/C(=N)N3C(=NC2=O)SN=C3S(C)(=O)=O)cc1 28.2 µM [quencher, side channel, single point]
O=C(Nc1ccc(-c2nnn(CC(=O)N3CCN(C(=O)c4ccco4)CC3)n2)cc1)c1ccccc1F 39.8 µM [fluorescent, side channel, single point]
CC1CCCN(C(=O)Cc2cccc3ccccc23)C1 (stereo unspecified) 10 µM [fluorescent, side channel, partial curve]
